Measurements reported in PubChem BioAssay (NCI).
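These data come from cells grown in 96-well plates and exposed to compound for 48 hours at five concentrations. Abbreviation: GI50, concentration required for 50% inhibition of growth. TGI denotes the concentration required for complete inhibition of growth.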

Tested on: NCI-H322M lung
Assay: NCI-60 cell line screen, 48 h

| SMILES | GI50 [µM] | TGI [µM] |
| --- | --- | --- |
| C#C[C@]1(O)CC[C@H]2[C@@H]3CC=C4c5sc(Nc6ccc(OC)nc6)nc5CC[C@]4(C)[C@H]3CC[C@@]21C | 2.36 | 14.9 |
| Cc1ccccc1N1CCN(C2=C(Cl)C(=O)c3ncccc3C2=O)CC1 | 22.3 | > 100 |
